Test results from paper PMC10668032.
Some of the results follow. At the low end of the ranking the order means little.

Each sequence was assayed against SIX1 homeodomain (reference allele) (UniProt Q15475) (assay: universal protein binding microarray). Conditions: Universal all-10-mer PBM (8x60K, AMADID 030236), 300 nM GST-tagged protein, Alexa Fluor 488 anti-GST; buffer, salt, pH and temperature not stated; high values mean tight binding; most listed sequences are background and not binding sites; double strand, one strand shown.

Sequence | binding signal [E-score]
ATATGACA | 0.218
CCTTGGGA | -0.0804
AGGAGATG | 0.0497
ATCGGGTC | 0.285
AACCGCCT | -0.0287
GTTTGTAA | -0.0838
GATATATC | 0.441
ACGAGGTA | 0.0427
CAGTCGAA | -0.19
CCTTTTTC | -0.0132
TCCACCCA | -0.0608
GAATGCCA | -0.134
ATACTGAA | 0.173
GTGCAGAA | 0.033
CCCACGGA | 0.0825
CAAACCTA | -0.147
GTACGTAC | -0.217
GGCCCGAA | -0.236
TGACTGAA | -0.203
GGTTACCA | -0.0641
GGACGCTA | -0.218
CCTATAAG | 0.0203
GAACCAGA | -0.184
AAGTAAGG | 0.01
ATATCTCA | 0.391

Sequence | binding signal [E-score]
GGTTACTA | -0.0323
ATGTATAC | 0.325
GTTCGCAA | -0.18
CACGCGAC | 0.029
CCGGGTAG | 0.162
TTAATCAA | -0.0269
CGGAACCC | -0.0123
GGCGCTCA | -0.144
ACTTGCCC | -0.0433
ACGGATGC | 0.0964
CGATCTCC | 0.31
CCCGCGTC | 0.0562
CCGGCCTC | -0.177
GTTGGAAA | -0.196
CGCCCGAA | -0.0929
ATCACCAG | 0.166
GACCTAGC | -0.255
GATGCCGA | 0.103
AACCGGGG | -0.0328
CGGCTAAA | 0.0214
AAAAGCAC | -0.172
ACCTGATC | 0.31
CCTCGGCC | -0.121
ATGGCTCC | 0.0801
GGCGTCCC | -0.278

Sequence | binding signal [E-score]
AGATCGGC | 0.216
AAGGGGAG | -0.0252
TACAAAGA | 8e-05
GATTAGGC | -0.0275
ACCTGACG | -0.234
CAGACAGA | 0.0184
TCATGCGA | 0.131
CATTAGGG | -0.147
AATCGCGA | 0.0405
ATCCAGAT | 0.299
ACGCCACC | -0.0991
GCCACGGC | -0.194
GATAGGCA | 0.204
GAGGTTCC | -0.11
GACACAGC | -0.186
ATTGATAG | 0.288
GCCAGGAC | -0.0808
CCAGTGAG | 0.0362
TCAGGCCA | -0.157
CTAAGGAC | -0.0935
GAATGTGC | -0.202
ACAAGCTC | -0.166
TTAACCAA | 0.031
CCGAAAAC | -0.136
GCTCCAGC | -0.158

Sequence | binding signal [E-score]
CTAAGCTA | -0.0706
ATTAGCCA | 0.0916
AAGCCCCT | 0.0737
ATGTAGTG | 0.0135
CTTGCCGA | -0.12
AAACTTGC | -0.117
AACAAATA | 0.0302
ATCTCCGA | 0.258
TAGATTGA | 0.0399
AAGTACGC | -0.137
AAGGTTGT | -0.259
TAGCGTCA | -0.121
ACCAGCAC | -0.122
ACGTAGCC | -0.1
CTTGGACA | -0.0852
AGACTGGG | -0.174
AGCACATC | -0.117
ACCGTAGT | 0.0349
AGGCGGTG | 0.14
ACTTGTGA | -0.0384
GCCTCCCA | -0.238
GTCTCAAC | 0.0972
ACTGTACA | -0.175
TCGTGCCA | -0.118
CAATCTAA | -0.0931

Sequence | binding signal [E-score]
GAGGCAGA | -0.0899
CCAGTCAA | -0.0568
GACGGATA | 0.35
ACTGACGG | 0.0232
AACGCTTA | -0.224
GCTTATTA | 0.0659
ACGACGCC | -0.218
TAGGTAAA | -0.147
ACCCCAAT | 0.12
CTACTGAA | -0.224
CTTTCACC | -0.188
CTGATTGA | -0.0273
AATTGCCA | -0.0941
TGCTGCAA | -0.108
AAAGTACG | -0.134
CCTAAAAC | -0.0821
CAAAAGGA | 0.0685
CTCGTTTC | -0.0779
ATTGTCGA | -0.0584
CGCCTTAG | -0.0767
AGCAGTAC | -0.0739
CGTGACAG | -0.0354
TCGGACAA | -0.14
TAATACCA | 0.37
GGTAGGCA | -0.0773

Sequence | binding signal [E-score]
ACGATTAT | 0.122
ACGTTAGG | -0.118
CTCGAGAG | 0.0143
ACGTTAGT | -0.136
GATACAAC | 0.305
GGGCATGA | -0.057
AACATCCC | 0.0308
TCGTTCCA | -0.201
AGCTGGCA | -0.278
GGAAAGAA | -0.262
AGGGAGTA | -0.0736
ACCGAATA | 0.18
CACCCCGC | 0.24
CGGGAACG | -0.112
ACCGACGG | -0.0456
CGGGGAAA | -0.165
ATGAAAGG | 0.0414
CTAGTGCA | 0.0234
AGTGAATA | -0.142
CCAGAGCA | -0.0837
ATTAGAAC | 0.0959
ATCCCACG | 0.192
CAATAGTA | -0.0501
CACATGGA | 0.0308
AATAGAGA | -0.087

Sequence | binding signal [E-score]
AATCATAC | 0.00459
ACGCTGCG | -0.233
CCCTACCC | 0.0846
GAGAACTC | -0.00538
TCCTCACA | 0.0516
CGCGTGTC | 0.0551
AAATACAC | 0.113
CGATGAAG | -0.0522
CATGAGAC | 0.296
CCAACCCC | -0.0124
AATCAATA | 0.144
AGTTACTA | -0.0995
ACCCACAG | 0.13
GACCGTGC | -0.25
GTACTGAC | -0.0122
CCAATGAC | 0.0246
AAGACACC | 0.347
AGGCTGAT | 0.172
AGTGGGAT | 0.333
GGAAAATA | 0.0296
CCAATCAC | -0.153
GAATACTC | 0.155
AGAGAGAC | -0.101
AAAGGCTA | -0.105
GACACCCC | 0.436

Sequence | binding signal [E-score]
ACCTTTGA | 0.0161
AGCACAAA | -0.173
AGCAGGTG | 0.143
AGATTTTC | -0.193
GCGGTGGA | 0.0422
ACTTGGAC | -0.0325
ACAATCCT | 0.0664
CCCATTGA | 0.0209
ATGCCGTG | -0.152
AGGACCTG | -0.27
AGAATCCC | 0.175
GGGCGTGA | 0.105
ATCGCACC | 0.207
AACAGTAC | -0.108
CCTTGAAA | -0.214
ACGTGTCA | 0.167
ATCCTTGG | 0.189
CGGAGACC | 0.0432
ATGTAGCC | -0.0461
ACCACGCC | -0.0819
AGTATCGA | 0.418
GGCTTCGA | 0.0639
AGCTCTGC | -0.318
AGACTTCA | -0.257
CCAGTTAA | -0.0573

Sequence | binding signal [E-score]
AGTTGTGG | -0.155
AACCCCAA | -0.0205
AATCCTGC | 0.00817
GAGCGCAC | -0.0644
AACCCGAT | 0.25
CCAAGGGG | 0.0934
GCAGAGGC | -0.24
GCGAGAGC | -0.263
CGGCCCCG | -0.197
CTTGCTTA | -0.202
CGAGAGCA | 0.0203
GTCAATTA | -0.019
GACAGCGC | -0.267
ACTCCTTC | -0.109
GAACCTGA | -0.0542
ATAAGTCC | -0.137
CCCGTCCG | -0.0107
CTGGTTGA | -0.0885
ACGTATCT | 0.339
AAGATGTC | -0.251
GGTGTTTA | 0.203
AAATAAGT | -0.152
ACAAATCG | -0.205
ATGCTGAC | -0.0277
ATGTCGCG | -0.00428

Sequence | binding signal [E-score]
CGGGAATA | 0.189
AGGTAAAG | 0.0336
TAGTCGGA | -0.0173
CAACAAGG | -0.111
TGCATTAA | -0.0197
CGGGACCG | -0.23
AACTCGAT | 0.138
ACCCTGCC | -0.088
AAAAATTT | -0.217
ATCCAAGC | 0.169
TATCTCAA | 0.329
AATAATAC | 0.345
ACGACTCC | -0.13
GATTGCAC | -0.0162
AACGAAGC | -0.298
GTCACGAC | -0.116
CGAATCTC | -0.0912
GTAACGAA | -0.114
AGCCGGGA | -0.00437
ACCATGGC | 0.0455
CAAACACG | -0.103
CCCAGTTC | -0.0301
CTCGGTGC | -0.136
AGATGTTG | 0.0187
CGAAGAAC | -0.258

Sequence | binding signal [E-score]
ACATCGCA | 0.152
ACACACCA | 0.124
CGTACCAG | -0.0214
CAACACGC | -0.0761
AGTTCTAG | -0.176
TTCATCAA | -0.223
AGGGGCGA | -0.15
GTATCAAC | 0.475
ACTCCCAG | -0.00561
AATTCCTC | -0.113
ACTGCGAT | 0.233
CCGTAGGA | -0.0605
ACCGTCAG | 0.000515
TTCCTAAA | -0.136
CCAATCGG | -0.0725
AGGTCTGG | -0.21
TAGAGCTA | -0.0278
AACCTTTA | -0.245
AGCCGTGC | -0.204
GATATTCA | 0.232
ACTCGAAC | -0.0186
ACTGGCTG | -0.0858
CCAGCGGG | 0.0974
GAGCACTA | -0.085
ACGCCATC | -0.0794

Sequence | binding signal [E-score]
AGTCGCTC | -0.308
CCCTTCCC | 0.2
ATTTACAG | -0.246
ACGTCAAT | -0.0725
ACTCCGAT | 0.206
CTACGCAC | -0.0382
AGTCGGGC | -0.0188
GCCACAGC | -0.0571
CGATCGAG | 0.21
ATGTCGCA | -0.0847
CAAGAGAA | -0.119
AAGCCACT | -0.204
AAAATGGT | 0.0437
ACATAGGC | 0.00408
CCATAGGA | 0.00464
CCCCCCTC | -0.0205
AATTGTTG | -0.308
GAGGCCGC | -0.184
GTGTTCCA | 0.0718
AGCCTGTG | 0.0426
GTACTCGA | 0.213
GCAGCCGA | -0.0389
ATTTCGGC | 0.0303
GGGAGCAC | 0.00475
ACCAGACC | 0.0699

Sequence | binding signal [E-score]
CCTTTTTA | -0.0661
CTGCCTAA | -0.143
ATGCTCTG | -0.157
CTTTATAC | 0.0599
CTGTACGC | -0.128
ACGTTACC | -0.152
ATACCTTG | 0.335
CAGCGATC | 0.265
AATTGGGG | 0.0748
CGCACAAA | -0.195
CAAACGTG | -0.237
CCTTCAAA | -0.159
ACCTCGAC | -0.203
CTCGTAAA | -0.227
CTTATTCA | -0.0942
AACTGTGC | -0.241
ACCATGAC | -0.0638
CGTTGTCA | -0.309
CGATATTA | 0.365
CTTGGGGA | 0.163
CAGCCCGG | -0.146
CACAGACC | -0.0529
CCAAAGAG | -0.21
AGCCTCCA | -0.251
AATTGTCG | -0.147

Sequence | binding signal [E-score]
ATCACCAT | 0.242
AATACCCT | 0.384
GGTCACAA | -0.0433
CCCAGAAC | -0.0814
TAGAATAA | 0.0676
TCGGGAGA | 0.0368
AGCCATAG | -0.0443
ATGAGCGC | -0.139
CAGAGCAA | -0.177
CCCCGTCA | -0.0181
GTTGACAA | -0.297
ACATGGTC | 0.0828
CCTGGGGC | -0.0201
CTGATAAG | 0.0735
GCACGTGA | -0.0895
ATGGTGCC | -0.034
TATCCAGA | 0.334
GGACCCAC | -0.101
CGAGATGC | 0.0578
